Results published in PubChem BioAssay AID463173 (ICCB-Longwood Screening Facility, Harvard Medical School, 2010).
Screen size: about 52,000 compounds; about 1,700 (3.3%) were called active. Rule as the data show it: active = survival mostly below about 52% (no sharp cut-off); inactive = mostly above about 56%. The list shows a part of the results.

Each molecule was assayed on Wild type (assay: S. aureus survival, RN4220 and DeltatarO strains – OD600, teichoic acid synthesis inhibitors, primary screen (AID 463173)). Details: S. aureus RN4220 wild type/DeltatarO growth, OD600, 18 h, stronger effect = lower value, screened at 18.75 µg/mL (by protocol).

Row | SMILES | survival
1 | Cc1ccc(NC(=O)CSc2nc3ccc(NC(=O)c4cccs4)cc3s2)cc1 | inactive: 90%
2 | COc1ccc(S(=O)(=O)c2cn(CC(=O)Nc3cc(C)ccc3C)c3ccccc3c2=O)cc1 | inactive: 92%
3 | COc1ccc(S(=O)(=O)n2nc(-c3ccco3)nc2NCc2ccc(N(C)C)cc2)cc1 | inactive: 83%
4 | CCN1CCN(Cc2nc3cc(NC(=O)c4cc(OC)c(OC)c(OC)c4)ccc3n2CC)CC1 | inactive: 83%
5 | Cc1ccc(CNC(=O)N2CCC(CN3CCC(C)CC3)CC2)cc1 | inactive: 101%
6 | COc1ccc(NC(=O)Cn2cnc3sc(C)c(S(=O)(=O)N4CCN(c5ccccc5OC)CC4)c3c2=O)cc1OC | inactive: 73%
7 | CCC1CN(C(=O)NCc2ccc(C)cc2)c2cc(Cl)ccc2O1 (centres undefined) | inactive: 111%
8 | Cc1ccc2scc(N3CCc4ccccc4C3)c(=O)c2c1 | inactive: 102%
9 | CCc1ccccc1NC(c1nnc(-c2cccc(F)c2)o1)c1ccc(F)cc1Cl (centres undefined) | inactive: 86%
10 | CC(C)c1ccc(NC(=O)CN2C(=O)COc3ccc(S(=O)(=O)N4CCCCC4)cc32)cc1 | inactive: 84%
11 | Cc1ccc(C)c(N2CCN(C(=O)Cn3ncc4c(=O)oc5ccccc5c43)CC2)c1 | inactive: 71%
12 | COc1cc(OC)cc(-c2nc3nc(C)c(CCC(=O)Nc4ccc(C)c(C)c4)c(C)n3n2)c1 | inactive: 90%
13 | Cc1cccc(C(=O)NCC(=O)OCc2cc(=O)n3nc(CC(C)C)sc3n2)c1 | inactive: 119%
14 | COc1cccc(C(=O)N2CCN(CCc3ccncc3)CC2)c1 | inactive: 100%
15 | Cc1cccc(-c2cc3nc4c(c(NCCN(C)C)n3n2)CCC4)c1 | inactive: 91%
16 | CN(C)c1ccc(CNC(=O)c2cccc(NC(=O)N3CCSc4ncccc43)c2)cc1 | inactive: 71%
17 | Cn1c(=O)c2c(-c3cccc(Br)c3)n(C(C)(C)CO)cc2n(C)c1=O | inactive: 87%
18 | S=C(NCCCN1CCOCC1)N1CCN(c2ccccc2)CC1 | inactive: 104%
19 | CCCN1CC=C2C(C#N)=C(N)C(C#N)(C#N)C(C(C)C)C2C1 (centres undefined) | inactive: 110%
20 | CCC(C(=O)NCc1ccco1)n1nc(C)c2c(C)n(-c3ccc(C)cc3)nc2c1=O (centres undefined) | inactive: 75%
21 | C=CCn1c(SC(CCO)C(=O)NCc2ccco2)nc2sc3c(c2c1=O)CCC3 (centres undefined) | inactive: 99%
22 | COc1cccc2c1cc1c(=O)n(CC(=O)N3CCN(c4ccc(Cl)cc4)CC3)nc(C)n12 | inactive: 127%

Row | SMILES | survival
23 | Fc1ccc(Nc2ncnc3onc(-c4cccc(Cl)c4)c23)c(F)c1 | inactive: 79%
24 | Cc1ccc(S(=O)(=O)NC2(C(F)(F)F)NC(=O)N(CCc3ccccc3)C2=O)cc1 (centres undefined) | inactive: 67%
25 | O=C1N(Cc2ccccc2)c2ccc(Cl)cc2C1(O)c1c[nH]c2ccccc12 (centres undefined) | inactive: 53%
26 | Cc1cc2nc(-c3ccc(OCc4ccccc4Cl)cc3)cc(C(F)(F)F)n2n1 | inactive: 42%
27 | COc1ccccc1NC(=O)Cn1c(SCC(=O)N(C)c2ccccc2)nc2ccccc21 | inactive: 123%
28 | Cc1ccc(NS(=O)(=O)c2ccc3c(c2)n(C)c(=O)n3C)cc1C | inactive: 70%
29 | CCOc1ccccc1NC(=O)CSc1nnc2[nH]c(=O)cc(-c3ccccc3)n12 | inactive: 120%
30 | Cc1cc(C)cc(NC(=O)Cn2cc(S(=O)(=O)NC(C)(C)C)c(S(=O)(=O)NC(C)(C)C)c2)c1 | inactive: 66%
31 | O=C(NCCn1cc(SCc2ccccc2Cl)c2ccccc21)c1cccs1 | inactive: 60%
32 | O=C(Nc1ccccc1Cl)C1CCN(c2nc3ccccc3nc2C(F)(F)F)CC1 | inactive: 90%
33 | O=C(Nc1ccc(F)c(F)c1)c1cc(S(=O)(=O)NC2CCCCCC2)ccc1F | inactive: 53%
34 | COc1ccc(-n2nc(C(=O)N3CCCC(C)C3)c3c4ccccc4n(C)c3c2=O)cc1 (centres undefined) | inactive: 95%
35 | CCc1ccc(C(=O)c2cn(CC(=O)NC3CCCCC3)c3nc(C)ccc3c2=O)cc1 | inactive: 74%
36 | O=C(c1ccccc1)n1nc(-c2ccccc2)nc1NCc1ccc(F)cc1 | active: -4%
37 | CCOC(=O)c1cc2c(=O)n3ccccc3nc2n(C(C)C)c1=NC(=O)c1cc2ccccc2o1 | inactive: 61%
38 | COc1ccc(CNC(=O)CN2C(=O)COc3ccc(S(=O)(=O)Nc4ccccc4)cc32)cc1 | inactive: 87%
39 | CNC(=O)c1c(NC(=O)c2ccc(S(=O)(=O)N3CCCCC3)cc2)sc2c1CCC2 | active: -2%
40 | OCCNc1nc(-c2cccnc2)nc2ccccc12 | inactive: 119%
41 | COc1ccc(-n2ccnc(NCc3ccccc3OC)c2=O)cc1 | inactive: 85%
42 | CCOc1ccc(N2CC(NC(=O)/C=C\c3ccc4c(c3)OCO4)CC2=O)cc1 (centres undefined) | inactive: 71%
43 | COc1ccc(-c2cc(C(F)(F)F)nc(S(C)(=O)=O)n2)cc1 | inactive: 98%
44 | CC(C)(C)C(=O)Nc1ccc2nc(SCC(=O)N3CCOCC3)sc2c1 | inactive: 87%
